# According to PMC4336329 (PLoS ONE, 2015):
# The campaign covered roughly 310,000 compounds. About 2,200 (0.71%) showed an effect of 50% or more. The effect is printed as a negative number. This is one part of the list.
# Molecular target: human ether-à-go-go-related gene (hERG) potassium channel (human, UniProt Q12809)
# Assay: primary screen, population patch clamp on CHO cells stably expressing hERG
# Chain of human ether-à-go-go-related gene (hERG) potassium channel (Q12809 whole entry, looked up): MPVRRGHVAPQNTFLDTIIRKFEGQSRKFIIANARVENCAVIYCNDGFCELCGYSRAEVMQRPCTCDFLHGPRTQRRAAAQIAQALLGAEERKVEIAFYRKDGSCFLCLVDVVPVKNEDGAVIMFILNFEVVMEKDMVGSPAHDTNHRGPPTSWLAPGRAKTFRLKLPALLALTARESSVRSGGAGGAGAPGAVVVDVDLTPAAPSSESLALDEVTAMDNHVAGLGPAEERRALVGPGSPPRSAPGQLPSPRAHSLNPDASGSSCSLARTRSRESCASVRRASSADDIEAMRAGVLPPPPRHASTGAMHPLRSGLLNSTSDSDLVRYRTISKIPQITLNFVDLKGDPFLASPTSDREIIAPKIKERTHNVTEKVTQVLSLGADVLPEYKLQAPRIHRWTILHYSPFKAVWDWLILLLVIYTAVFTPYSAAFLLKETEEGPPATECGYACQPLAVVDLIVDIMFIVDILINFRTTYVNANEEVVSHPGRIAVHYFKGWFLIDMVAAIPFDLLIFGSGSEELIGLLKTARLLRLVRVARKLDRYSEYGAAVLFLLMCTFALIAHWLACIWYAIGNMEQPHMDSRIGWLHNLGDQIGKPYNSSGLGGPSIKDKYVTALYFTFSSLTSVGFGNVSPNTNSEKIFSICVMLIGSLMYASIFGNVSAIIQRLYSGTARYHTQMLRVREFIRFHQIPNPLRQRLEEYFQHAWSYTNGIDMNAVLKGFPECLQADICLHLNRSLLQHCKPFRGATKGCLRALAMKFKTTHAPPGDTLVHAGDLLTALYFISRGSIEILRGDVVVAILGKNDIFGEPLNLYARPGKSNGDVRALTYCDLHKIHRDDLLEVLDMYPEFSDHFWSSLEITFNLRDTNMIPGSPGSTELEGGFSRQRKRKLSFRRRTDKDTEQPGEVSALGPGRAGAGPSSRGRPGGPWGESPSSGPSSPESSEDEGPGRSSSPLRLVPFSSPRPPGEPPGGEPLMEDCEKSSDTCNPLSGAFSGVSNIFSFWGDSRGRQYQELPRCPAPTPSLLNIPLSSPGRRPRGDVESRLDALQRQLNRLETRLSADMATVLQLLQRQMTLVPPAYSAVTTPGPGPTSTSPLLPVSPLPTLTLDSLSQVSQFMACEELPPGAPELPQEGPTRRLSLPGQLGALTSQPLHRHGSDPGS
row,SMILES,"hERG current change (%, negative = inhibition) at 1uM [%]"
1,O=C(CCc1ccc(S(=O)(=O)N2CCOCC2)cc1)N1CCCC1,2.89
2,COc1cccc(OCCNc2ccc([N+](=O)[O-])cn2)c1,-1.47
3,Cc1onc(-c2c(Cl)cccc2Cl)c1/C(N)=N/OC(=O)N(C)C,9.36
4,O=C(CSc1ncccc1C(=O)O)c1ccc2ccccc2c1,4.69
5,CC(=O)Nc1ccc(S(=O)(=O)NCCCN2CCOCC2)cc1,9.38
6,C=CCNC(=O)C1CCC(C(=O)NCC=C)CC1 (stereo not drawn),6.42
7,Fc1ccc(CSc2nnc(-c3ccco3)o2)cc1,15.7
8,N/C(=N\OC(=O)CSc1ccccc1)c1cccc([N+](=O)[O-])c1,-1.28
9,O=C(Nc1nnc(SCC(=O)N2CCCc3ccccc32)s1)c1ccc2ccccc2c1,6.91
10,COC(=O)c1cc(Br)c(=O)n(-c2cc(C)on2)c1,14.4
11,CCCCN(CC)CCCNC(=O)CC1Nc2ccccc2NC1=O (stereo not drawn),10.2
12,CCOC(=O)Cn1nc(-c2ccccc2)c2ccccc2c1=O,7.25
13,CCCCn1c(N)c(N(CC(C)C)C(=O)c2cc(C)nc3ccccc23)c(=O)[nH]c1=O,6.52
14,O=C(CCC(=O)N1CCN(Cc2ccc(F)cc2)CC1)Nc1nnc(C2CCCCC2)s1,14.1
15,Cc1ccc(CNC(=O)C(Cc2ccccc2)NS(=O)(=O)c2ccc3c(c2)CCC(=O)N3)cc1 (stereo not drawn),-2.53
16,CC(C)CCn1c(=O)c2c(nc3n2CCCN3Cc2ccccc2)n(C)c1=O,-10.9
17,CC(CCc1ccccc1)NC(=O)COC(=O)c1cc(NS(=O)(=O)c2ccc(Cl)c([N+](=O)[O-])c2)ccc1O (stereo not drawn),14.1
18,CC(=O)c1cc(C#N)c(SCC(=O)O)nc1C,0.462
19,Cc1ccc(OCCCN2C(=O)C(=O)c3cccc(C)c32)cc1,13.2

row,SMILES,"hERG current change (%, negative = inhibition) at 1uM [%]"
1,CCN(CCn1cccn1)C(=O)CCc1nnc(CCc2ccccc2OC)o1,-5.16
2,Cc1ccccc1NC(=S)N(C)Cc1cccs1,-4.48
3,COc1n[nH]c(C(=O)NCc2ccccc2)c1[N+](=O)[O-],5.38
4,CC(C)(C)Nc1nc(C(N)=O)nc(N2CCOCC2)n1,0.837
5,CCOC(=O)c1cnc(Nc2ccccc2)nc1C(F)(F)F,10.6
6,CC(=O)c1ccc(N2CCN(S(=O)(=O)c3csc(C(N)=O)c3)CC2)cc1,-14.2
7,Cc1cccc(NCc2nc3ccccc3n2Cc2ccccc2)c1,12
8,O=C(OC1CCOC1=O)c1cc(-c2ccc(Cl)cc2)nc2ccccc12 (stereo not drawn),15
9,O=C(NC1CCCCC1)[C@H](O)[C@@H](O)C(=O)NC1CCCCC1,11.1
10,COCCCn1c(=O)cc(C)[nH]c1=S,12.6
11,O=C(Nc1ccc(NC(=S)NC(=O)c2cccs2)cc1)c1ccco1,22.5
12,Cc1cc(C(=O)Nc2c(C)nn(Cc3ccc(Cl)cc3)c2C)no1,-7.24
13,COc1ccc(-n2c(=O)c3ccccc3n(CC(=O)c3ccccc3)c2=O)cc1OC,3.96
14,CCN1CCN(Cc2ccc(C(=O)Nc3ccc(C)c(NCc4cnc(NC(=O)OC)cn4)c3)cc2C(F)(F)F)CC1,7.56
15,CC(c1ccccc1)N1C(=O)c2ccc(C(=O)Nc3ccccc3C(=O)O)cc2C1=O (stereo not drawn),10.5
16,COc1cc(C(=O)NC2CC(C)(C)CC(C)(C)C2)ccc1OC1CCN(C(C)=O)CC1,12.2
17,CSc1ccc(S(=O)(=O)NC2CCCCC2)cc1,-11.8
18,Cc1ccc(/C=N/n2c(COc3ccccc3)n[nH]c2=S)o1,10.5
19,COc1ccccc1NCC(=O)N/N=C/c1c(O)ccc2ccccc12,9.84

row,SMILES,"hERG current change (%, negative = inhibition) at 1uM [%]"
1,O=C(CSc1nnc(NC(=O)c2ccccc2F)s1)NC1CCCC1,16.2
2,O=C(O)CSCC(=O)Nc1ccccc1SCCS(=O)(=O)c1ccc(Cl)cc1,10.6
3,O=C(CSc1nnc(-c2ccco2)o1)NC1CCCCC1,19.6
4,C=CCNC(=S)N/N=C/c1ccc(OCc2ccccc2)cc1,11.8
5,COc1ccc(NP(=O)(Oc2ccccc2OC)Oc2ccccc2OC)cc1,8.46
6,O=C(CN1CCN(c2ccccn2)CC1)Nc1ccccc1F,3.67
7,O=C(CCCN1C(=O)C(c2ccccc2)Oc2cccnc21)Nc1ccccc1Cl (stereo not drawn),19.2
8,CSCC[C@H](NC(=O)OC(C)(C)C)C(=O)N1CCC(C(=O)N[C@@H](C)C(=O)NCc2ccc(F)cc2)CC1,4.14
9,COc1ccc(NC(=O)CCNC(=O)Cn2cnc3sc4c(c3c2=O)CCCC4)c(OC)c1,12.6
10,Cc1ccc(NS(=O)(=O)c2ccc3c(c2)NC(=O)CCS3)c(C)c1,8.87
11,COc1ccc(S(=O)(=O)n2nc(OC(=O)C3CCCCC3)cc2N)cc1,9.89
12,Cc1nn(-c2ccccc2)c(Cl)c1C(=O)NCCN(C)C,16.2
13,Cc1cccc(NC(=O)c2cccc(OC(=S)N3CCOCC3)c2)c1,3.19
14,Cc1ccccc1CNC(=O)C1CCC(=O)N(CC2CCCCC2)C1 (stereo not drawn),8.58
15,COc1ccc(NCC(=O)N/N=C2\CCc3ccccc32)cc1,4.02
16,Cc1ccc(C2(C)NC(=O)N(CC(=O)c3ccc(Cl)s3)C2=O)cc1 (stereo not drawn),7.69
17,Cc1cccc(N2CCN(C(=O)/C=C/c3ccco3)CC2)c1C,5.29
18,Nc1cc(N2CCCCCC2)c2nonc2c1[N+](=O)[O-],11
19,CC1CCCC(C)N1C(=O)CSc1nc(N)c(-c2ccccc2)c(=O)[nH]1 (stereo not drawn),7.78
